Positions count from the first letter of the chain named. Results are given in words; binding and its absence hold for the method and conditions named. For some of these results: Binding seen in cells or lysates may run through a third protein. Some binding calls cover weakened binding; strength is not graded here. For some of these results: Where a sequence is shown, tags or fusion partners need not be part of it.
What was measured:
[1] = molecular target: T1, CCPG1 (endogenous, A549) (human (endogenous in A549)) (UniProt Q9ULG6); assay: co-IP; endogenous CCPG1 immunoprecipitated from A549 lysate, cells untreated or EBSS starved for 1 hr; negative control IgG; immunoblot
T1 sequence: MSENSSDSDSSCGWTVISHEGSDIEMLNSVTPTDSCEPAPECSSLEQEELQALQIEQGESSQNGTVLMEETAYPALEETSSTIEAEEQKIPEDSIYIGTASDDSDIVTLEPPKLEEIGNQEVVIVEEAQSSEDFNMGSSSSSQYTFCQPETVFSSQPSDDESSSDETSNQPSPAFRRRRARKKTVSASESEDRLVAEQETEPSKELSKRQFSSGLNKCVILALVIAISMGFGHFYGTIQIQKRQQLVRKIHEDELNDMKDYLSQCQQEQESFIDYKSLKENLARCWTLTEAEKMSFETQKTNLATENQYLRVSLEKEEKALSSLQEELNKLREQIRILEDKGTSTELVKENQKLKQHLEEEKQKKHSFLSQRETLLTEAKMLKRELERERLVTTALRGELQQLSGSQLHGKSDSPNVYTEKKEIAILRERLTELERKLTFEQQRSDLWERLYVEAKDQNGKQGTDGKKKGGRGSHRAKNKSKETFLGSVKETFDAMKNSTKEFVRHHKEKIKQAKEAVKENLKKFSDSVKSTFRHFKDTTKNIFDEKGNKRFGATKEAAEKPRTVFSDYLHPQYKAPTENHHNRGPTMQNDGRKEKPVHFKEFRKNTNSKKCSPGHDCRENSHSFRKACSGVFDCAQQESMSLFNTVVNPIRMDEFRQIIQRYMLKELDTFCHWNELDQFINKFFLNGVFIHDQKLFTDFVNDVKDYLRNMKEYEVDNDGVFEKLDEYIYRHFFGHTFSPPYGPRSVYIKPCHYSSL

The chains behind the UniProt entries cited, without tags or fusion partners. Where a name states a change or a piece, a line headed by the entry shows the natural chain unless it says otherwise.
UniProt Q8TDY2: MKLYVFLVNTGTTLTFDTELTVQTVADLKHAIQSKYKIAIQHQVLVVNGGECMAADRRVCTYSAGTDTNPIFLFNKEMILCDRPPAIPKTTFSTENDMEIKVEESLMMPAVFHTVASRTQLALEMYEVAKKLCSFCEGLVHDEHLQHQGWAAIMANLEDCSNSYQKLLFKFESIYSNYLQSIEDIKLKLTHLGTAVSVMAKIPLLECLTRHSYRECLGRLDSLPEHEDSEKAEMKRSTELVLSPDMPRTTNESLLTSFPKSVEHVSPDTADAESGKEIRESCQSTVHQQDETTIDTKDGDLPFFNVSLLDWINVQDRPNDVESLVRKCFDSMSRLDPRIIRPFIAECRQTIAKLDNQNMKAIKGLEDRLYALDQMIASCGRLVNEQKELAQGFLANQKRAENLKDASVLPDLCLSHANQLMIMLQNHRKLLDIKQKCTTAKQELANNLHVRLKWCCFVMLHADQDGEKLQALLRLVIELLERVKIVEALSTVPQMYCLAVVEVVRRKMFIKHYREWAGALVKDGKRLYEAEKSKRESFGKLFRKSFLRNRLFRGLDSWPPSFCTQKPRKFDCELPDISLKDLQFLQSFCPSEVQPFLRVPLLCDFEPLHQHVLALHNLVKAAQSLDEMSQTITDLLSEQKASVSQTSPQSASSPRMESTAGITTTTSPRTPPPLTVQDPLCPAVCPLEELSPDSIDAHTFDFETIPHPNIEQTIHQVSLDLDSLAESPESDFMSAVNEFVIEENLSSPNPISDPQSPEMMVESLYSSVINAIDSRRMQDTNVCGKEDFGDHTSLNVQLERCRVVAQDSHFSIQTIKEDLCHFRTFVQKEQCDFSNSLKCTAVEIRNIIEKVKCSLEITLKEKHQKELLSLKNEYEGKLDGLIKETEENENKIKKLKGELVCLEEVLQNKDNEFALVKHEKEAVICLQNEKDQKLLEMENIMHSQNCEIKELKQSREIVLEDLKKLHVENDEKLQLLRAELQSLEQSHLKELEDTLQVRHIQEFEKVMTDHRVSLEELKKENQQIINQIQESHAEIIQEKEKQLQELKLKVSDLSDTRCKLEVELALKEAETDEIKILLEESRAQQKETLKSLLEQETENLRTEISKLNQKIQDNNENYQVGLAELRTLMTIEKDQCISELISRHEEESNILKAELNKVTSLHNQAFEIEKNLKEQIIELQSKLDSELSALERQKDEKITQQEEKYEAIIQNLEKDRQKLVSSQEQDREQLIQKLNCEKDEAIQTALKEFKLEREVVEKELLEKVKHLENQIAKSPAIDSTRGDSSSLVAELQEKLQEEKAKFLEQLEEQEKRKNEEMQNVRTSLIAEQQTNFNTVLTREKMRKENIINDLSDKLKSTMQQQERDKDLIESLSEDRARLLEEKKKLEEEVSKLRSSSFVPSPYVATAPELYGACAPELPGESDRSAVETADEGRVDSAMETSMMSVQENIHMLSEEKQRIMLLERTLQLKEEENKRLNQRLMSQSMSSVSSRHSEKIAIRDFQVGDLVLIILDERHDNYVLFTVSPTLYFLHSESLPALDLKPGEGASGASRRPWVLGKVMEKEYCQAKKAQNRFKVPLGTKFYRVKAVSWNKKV

[2] = molecular target: T2, NTAP (FLAG-HA)-CCPG1 (human) (UniProt Q9ULG6); assay: co-IP; A549 stably expressing NTAP-CCPG1 or NTAP empty vector, anti-FLAG beads, immunoblot for endogenous proteins
T2 sequence: T1 sequence

[3] = molecular target: T3, myc-CCPG1 (full-length, 6x myc) (human) (UniProt Q9ULG6); assay: co-IP; HEK293 lysates of singly transfected cells mixed, anti-myc agarose beads, IGEPAL IP buffer, 4°C, 15 h; immunoblot
T3 sequence: T1 sequence

[4] = molecular target: T4, GFP-CCPG1 (full-length) (human) (UniProt Q9ULG6); assay: co-IP; HEK293 lysates of singly transfected cells mixed, GFP-Trap magnetic beads, IGEPAL IP buffer, 4°C, 2 h; immunoblot
T4 sequence: T1 sequence

[5] = molecular target: T5, GFP-CCPG1 mtLIR W14A I17A (human) (UniProt Q9ULG6); assay: as above
T5 sequence: T1 sequence with W14A, I17A

[6] = molecular target: T6, myc-CCPG1 NTD with deletion of aa 107–112 (human) (UniProt Q9ULG6); assay: co-IP; HEK293 lysates of singly transfected cells mixed, anti-myc agarose beads, IGEPAL IP buffer, 4°C, 15 h; immunoblot
T6 sequence: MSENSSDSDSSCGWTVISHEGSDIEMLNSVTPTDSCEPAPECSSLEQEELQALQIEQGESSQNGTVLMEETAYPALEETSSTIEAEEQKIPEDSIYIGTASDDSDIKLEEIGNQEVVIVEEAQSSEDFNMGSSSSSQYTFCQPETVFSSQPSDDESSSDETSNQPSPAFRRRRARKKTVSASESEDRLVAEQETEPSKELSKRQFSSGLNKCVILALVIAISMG

[7] = molecular target: T7, myc-CCPG1 NTD with deletion of aa 82–119 (human) (UniProt Q9ULG6); assay: as above
T7 sequence: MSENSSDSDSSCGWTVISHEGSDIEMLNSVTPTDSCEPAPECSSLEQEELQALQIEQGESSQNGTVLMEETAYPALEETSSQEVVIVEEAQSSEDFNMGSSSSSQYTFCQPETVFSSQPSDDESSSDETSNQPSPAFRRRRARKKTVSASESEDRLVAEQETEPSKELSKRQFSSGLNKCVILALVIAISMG

myc-CCPG1 NTD (human) = molecular target: T8, myc-CCPG1 NTD (human) (UniProt Q9ULG6); assay: as above
T8 sequence: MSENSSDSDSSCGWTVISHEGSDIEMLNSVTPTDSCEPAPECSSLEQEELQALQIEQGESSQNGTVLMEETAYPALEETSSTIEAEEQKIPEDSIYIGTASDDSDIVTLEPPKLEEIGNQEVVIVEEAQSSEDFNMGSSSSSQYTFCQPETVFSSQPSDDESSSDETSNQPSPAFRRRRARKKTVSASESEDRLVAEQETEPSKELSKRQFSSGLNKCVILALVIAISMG

[8] = molecular target: T9, myc-CCPG1 NTD truncated from residue 146 onward (human) (UniProt Q9ULG6); assay: as above
T9 sequence: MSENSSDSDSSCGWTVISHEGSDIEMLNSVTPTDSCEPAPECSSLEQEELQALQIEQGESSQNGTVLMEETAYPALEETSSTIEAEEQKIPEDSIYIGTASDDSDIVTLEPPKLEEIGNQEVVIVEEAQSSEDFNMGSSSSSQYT

[9] = molecular target: T10, myc-CCPG1 NTD with deletion of aa 99–105 (human) (UniProt Q9ULG6); assay: as above
T10 sequence: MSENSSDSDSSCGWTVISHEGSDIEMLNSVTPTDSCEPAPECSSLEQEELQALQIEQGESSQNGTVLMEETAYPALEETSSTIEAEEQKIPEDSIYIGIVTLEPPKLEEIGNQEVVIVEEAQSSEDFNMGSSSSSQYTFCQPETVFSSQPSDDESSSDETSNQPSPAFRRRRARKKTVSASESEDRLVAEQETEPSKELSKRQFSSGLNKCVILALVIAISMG

[10] = molecular target: T3, myc-CCPG1 (full-length, 6x myc) (human); assay: co-IP; HeLa ΔCCPG1-1 cells transfected with FLAG-FIP200 and myc-CCPG1 variants, immunoprecipitated on myc; immunoblot
[11] = molecular target: T11, myc-CCPG1 mtFIR1+2 (full-length) (human) (UniProt Q9ULG6); assay: as above
T11 sequence: T1 sequence with S22A, D23A, I24A, E25A, S104A, D105A, I106A, L109A

[12] = molecular target: T12, GST-CCPG1 NTD (bacterial) (1-230) (human) (UniProt Q9ULG6); assay: pull-down; GST-CCPG1 NTD pre-purified on glutathione Sepharose beads, incubated with purified recombinant protein (His-GABARAP or His-FIP200) in IGEPAL IP buffer, 4°C; immunoblot; both purified
T12 sequence: T8 sequence

[13] = molecular target: T13, CCPG1 peptide array region C (aa 205–223) (human) (UniProt Q9ULG6); assay: peptide or protein array; cellulose membrane spotted with 15-mer CCPG1 peptides (1-55), blocked with 5% BSA/TBST, probed with recombinant FIP200 for 1 hour, detected with rabbit anti-FIP200 and HRP secondary; both purified
T13 sequence (peptide): ELSKRQFSSGLNKCVILAL

[14] = molecular target: T14, CCPG1 peptide array region B (aa 169–187) (human) (UniProt Q9ULG6); assay: as above
T14 sequence (peptide): NQPSPAFRRRRARKKTVSA

[15] = molecular target: T15, CCPG1 peptide array region A (aa 101–115) (human) (UniProt Q9ULG6); assay: as above
T15 sequence (peptide): SDDSDIVTLEPPKLE

FIP200 (endogenous, A549) (from UniProt Q8TDY2 1-1594)
binding [1]: binds | binding [2]: binds

FLAG-FIP200 (1,279–1,594) (from UniProt Q8TDY2 1279-1594) (domain or fragment)
binding [3]: binds

FLAG-FIP200 (p3xFLAG-CMV10-hFIP200, human FIP200 1-1594) (from UniProt Q8TDY2 1-1594)
binding [4]: binds | binding [5]: binds | binding [6]: no binding | binding [7]: no binding | binding (myc-CCPG1 NTD (human)): binds | binding [8]: binds | binding [9]: no binding | binding [10]: binds | binding [11]: no binding

Recombinant His-FIP200 (from UniProt Q8TDY2 1-1594)
binding [12]: binds | binding [13]: no binding | binding [14]: no binding | binding [15]: binds

Reference: paper PMC5791736
